The target of experiment [1] is T1, Clu1-TEV-GFP (S. cerevisiae) (UniProt Q03690).
T1 sequence: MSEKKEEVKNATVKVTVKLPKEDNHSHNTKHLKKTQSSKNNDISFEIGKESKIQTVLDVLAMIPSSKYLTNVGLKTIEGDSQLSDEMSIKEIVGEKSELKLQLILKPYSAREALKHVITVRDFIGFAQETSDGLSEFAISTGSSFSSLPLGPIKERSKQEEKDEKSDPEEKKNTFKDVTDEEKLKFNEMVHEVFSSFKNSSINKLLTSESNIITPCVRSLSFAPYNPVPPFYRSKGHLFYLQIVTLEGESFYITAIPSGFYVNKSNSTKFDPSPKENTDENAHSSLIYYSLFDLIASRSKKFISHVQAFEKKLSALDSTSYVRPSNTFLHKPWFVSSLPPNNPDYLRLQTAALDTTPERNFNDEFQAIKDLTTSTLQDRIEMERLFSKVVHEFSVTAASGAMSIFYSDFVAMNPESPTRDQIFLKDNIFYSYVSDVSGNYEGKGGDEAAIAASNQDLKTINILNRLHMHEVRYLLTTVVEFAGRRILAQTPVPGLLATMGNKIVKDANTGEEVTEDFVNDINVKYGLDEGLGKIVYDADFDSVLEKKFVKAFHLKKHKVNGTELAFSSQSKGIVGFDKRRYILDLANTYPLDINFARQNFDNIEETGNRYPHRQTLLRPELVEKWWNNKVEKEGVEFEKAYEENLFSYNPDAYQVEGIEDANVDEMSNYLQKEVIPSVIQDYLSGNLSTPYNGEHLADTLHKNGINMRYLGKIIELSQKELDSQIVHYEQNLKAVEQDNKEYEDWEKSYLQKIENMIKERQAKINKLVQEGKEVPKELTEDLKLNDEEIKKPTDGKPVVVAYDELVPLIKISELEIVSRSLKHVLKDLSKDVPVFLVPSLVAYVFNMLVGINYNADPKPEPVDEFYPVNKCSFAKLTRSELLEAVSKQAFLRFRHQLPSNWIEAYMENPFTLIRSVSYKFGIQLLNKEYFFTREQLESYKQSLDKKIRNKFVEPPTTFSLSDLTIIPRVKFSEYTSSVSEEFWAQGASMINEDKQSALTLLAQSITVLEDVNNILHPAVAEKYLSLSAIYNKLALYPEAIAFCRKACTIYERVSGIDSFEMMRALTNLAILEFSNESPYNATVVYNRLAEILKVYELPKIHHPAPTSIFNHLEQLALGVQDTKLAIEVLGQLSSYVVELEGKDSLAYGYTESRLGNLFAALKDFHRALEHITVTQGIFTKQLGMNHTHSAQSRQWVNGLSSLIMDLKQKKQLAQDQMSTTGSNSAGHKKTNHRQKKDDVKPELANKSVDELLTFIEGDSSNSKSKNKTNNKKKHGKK
As to the kind of experiment: co-IP; GFP immunoprecipitation (Dynabeads with mouse monoclonal GFP antibody) from log phase lysates of cells expressing Clu1-TEV-GFP or GFP, PLB with CHX; immunoblot for Rpl3.

Sequences of proteins named here, by UniProt entry; tags and fusion partners are left off.
UniProt P14126: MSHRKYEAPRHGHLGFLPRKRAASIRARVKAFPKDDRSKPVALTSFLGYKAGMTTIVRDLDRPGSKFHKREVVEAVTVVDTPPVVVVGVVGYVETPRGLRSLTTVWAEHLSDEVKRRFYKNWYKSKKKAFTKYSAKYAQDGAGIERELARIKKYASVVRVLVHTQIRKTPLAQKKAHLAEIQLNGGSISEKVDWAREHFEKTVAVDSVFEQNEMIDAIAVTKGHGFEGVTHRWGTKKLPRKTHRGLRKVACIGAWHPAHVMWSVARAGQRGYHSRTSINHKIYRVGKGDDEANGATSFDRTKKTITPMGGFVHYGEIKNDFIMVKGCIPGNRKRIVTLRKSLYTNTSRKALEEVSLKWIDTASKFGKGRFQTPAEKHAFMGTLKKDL
UniProt P38431: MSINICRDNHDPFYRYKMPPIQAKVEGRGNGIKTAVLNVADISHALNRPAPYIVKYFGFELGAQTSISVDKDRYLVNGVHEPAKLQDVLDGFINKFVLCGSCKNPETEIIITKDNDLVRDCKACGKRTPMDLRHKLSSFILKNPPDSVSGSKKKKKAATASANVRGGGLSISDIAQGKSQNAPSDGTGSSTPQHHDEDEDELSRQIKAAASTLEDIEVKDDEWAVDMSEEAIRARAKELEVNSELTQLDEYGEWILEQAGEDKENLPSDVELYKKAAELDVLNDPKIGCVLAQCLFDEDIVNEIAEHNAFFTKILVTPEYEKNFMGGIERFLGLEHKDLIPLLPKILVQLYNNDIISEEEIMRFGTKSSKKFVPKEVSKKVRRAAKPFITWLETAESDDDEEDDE

A further experiment concerns the target T2, Clu1-VN (S. cerevisiae) (UniProt Q03690).
T2 sequence: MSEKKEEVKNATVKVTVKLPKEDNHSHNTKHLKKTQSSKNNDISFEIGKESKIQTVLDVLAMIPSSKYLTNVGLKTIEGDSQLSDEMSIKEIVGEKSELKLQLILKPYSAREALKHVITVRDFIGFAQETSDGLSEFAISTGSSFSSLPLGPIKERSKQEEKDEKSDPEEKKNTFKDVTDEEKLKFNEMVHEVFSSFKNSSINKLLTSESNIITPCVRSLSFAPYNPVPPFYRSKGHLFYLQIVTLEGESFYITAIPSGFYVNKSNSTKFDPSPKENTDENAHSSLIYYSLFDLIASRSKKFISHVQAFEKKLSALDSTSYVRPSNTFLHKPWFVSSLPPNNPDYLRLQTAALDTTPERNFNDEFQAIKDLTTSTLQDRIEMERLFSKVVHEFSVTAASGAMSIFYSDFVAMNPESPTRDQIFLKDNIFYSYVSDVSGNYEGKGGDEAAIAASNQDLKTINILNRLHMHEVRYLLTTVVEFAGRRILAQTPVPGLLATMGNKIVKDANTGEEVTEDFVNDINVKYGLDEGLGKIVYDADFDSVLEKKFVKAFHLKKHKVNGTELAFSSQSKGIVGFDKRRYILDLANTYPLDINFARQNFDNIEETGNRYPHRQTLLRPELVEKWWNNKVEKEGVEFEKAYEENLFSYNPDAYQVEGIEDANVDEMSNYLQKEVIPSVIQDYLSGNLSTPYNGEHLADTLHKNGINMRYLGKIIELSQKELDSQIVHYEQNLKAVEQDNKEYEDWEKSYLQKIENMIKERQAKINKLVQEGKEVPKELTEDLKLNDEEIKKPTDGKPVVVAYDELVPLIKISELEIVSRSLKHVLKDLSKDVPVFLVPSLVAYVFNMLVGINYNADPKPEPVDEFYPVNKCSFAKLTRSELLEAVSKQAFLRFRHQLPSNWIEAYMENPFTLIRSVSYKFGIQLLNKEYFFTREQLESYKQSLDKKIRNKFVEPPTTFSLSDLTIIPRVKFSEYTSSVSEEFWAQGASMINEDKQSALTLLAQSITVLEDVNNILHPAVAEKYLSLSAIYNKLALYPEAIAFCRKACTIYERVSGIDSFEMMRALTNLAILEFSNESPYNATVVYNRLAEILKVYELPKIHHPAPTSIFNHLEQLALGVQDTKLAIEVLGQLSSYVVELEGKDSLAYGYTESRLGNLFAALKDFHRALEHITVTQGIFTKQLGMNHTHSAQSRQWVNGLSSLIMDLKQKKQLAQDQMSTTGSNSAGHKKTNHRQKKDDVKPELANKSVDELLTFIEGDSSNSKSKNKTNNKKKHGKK
As to the kind of experiment: split reporter; BiFC in diploid yeast co-expressing Clu1-VN and protein-VC; cells in glucose media at mid-log phase or shifted to glycerol media for 24 h; Venus fluorescence by confocal microscopy.

These are yes or no findings as the source states them, for the method shown. In cells and extracts the contact can be indirect. Some binding calls cover weakened binding; strength is not graded here. For some assays here: Tags and fused reporters may be left off the sequences shown.

For the molecule “ribosomal protein Rpl3 (from UniProt P14126 1-387)”, in experiment [1], the binding entry is “binds”. Consider Tif5-VC (from UniProt P38431 1-405), for which the binding result with Clu1-VN (S. cerevisiae) is given as “binds”.

B1: Sod2-VC (protein, UniProt P00447 27-233)
chain: KVTLPDLKWDFGALEPYISGQINELHYTKHHQTYVNGFNTAVDQFQELSDLLAKEPSPANARKMIAIQQNIKFHGGGFTNHCLFWENLAPESQGGGEPPTGALAKAIDEQFGSLDELIKLTNTKLAGVQGSGWAFIVKNLSNGGKLDVVQTYNQDTVTGPLVPLVAIDAWEHAYYLQYQNKKADYFKAIWNVVNWKEASRRFDAGKI
With B1, the binding result in the experiment with Clu1-VN (S. cerevisiae) is “no binding”.

B2: Tif3-VC (protein, UniProt P34167 1-436)
chain: MAPPKKTVKKMDLTSFLNDDTFGSSWAEEDVDLNKITIPIETANANTIPLSELAHAKNNSNNTRSGGFGGSFGGRSRLDPALGGGSSDRREEYPVPDAPPYRAVINNIPWDITPEGVQAWVEDGLVKPEAVEEVVLPKNLRDPTRLKGNAFVTLKERADLVAVLKFNGTKLNERTVYVSVAAPRRGGGADVDWSSARGSNFQGDGREDAPDLDWGAARGSNFRGPRREREEVDIDWTAARGSNFQGSSRPPRREREEVDIDWSAARGSNFQGSSRPPRREREEPDIDWSAARGSNFQSSSRPPRREREEPDIDWSAARGSNFQSSSRPPRREREKEEPALDWGAARGAQFGKPQQTKNTYKDRSLTNKKTTDEQPKIQKSVYDVLRTEDDDEDEEAEKQNGDAKENKVDAAVEKLQDKTAQLTVEDGDNWEVVGKK
Regarding B2, the binding entry with Clu1-VN (S. cerevisiae) is reported as “binds”.

B3: Rpl17b-VC (protein, UniProt P46990 1-184)
chain: MARYGATSTNPAKSASARGSYLRVSFKNTRETAQAINGWELTKAQKYLDQVLDHQRAIPFRRFNSSIGRTAQGKEFGVTKARWPAKSVKFVQGLLQNAAANAEAKGLDATKLYVSHIQVNQAPKQRRRTYRAHGRINKYESSPSHIELVVTEKEEAVAKAAEKKVVRLTSRQRGRIAAQKRISA
For the molecule B3, in the experiment with Clu1-VN (S. cerevisiae), the binding entry is “binds”.

B4: Aco1-VC (protein, UniProt P19414 17-778)
chain: ATVSNLTRDSKVNQNLLEDHSFINYKQNVETLDIVRKRLNRPFTYAEKILYGHLDDPHGQDIQRGVSYLKLRPDRVACQDATAQMAILQFMSAGLPQVAKPVTVHCDHLIQAQVGGEKDLKRAIDLNKEVYDFLASATAKYNMGFWKPGSGIIHQIVLENYAFPGALIIGTDSHTPNAGGLGQLAIGVGGADAVDVMAGRPWELKAPKILGVKLTGKMNGWTSPKDIILKLAGITTVKGGTGKIVEYFGDGVDTFSATGMGTICNMGAEIGATTSVFPFNKSMIEYLEATGRGKIADFAKLYHKDLLSADKDAEYDEVVEIDLNTLEPYINGPFTPDLATPVSKMKEVAVANNWPLDVRVGLIGSCTNSSYEDMSRSASIVKDAAAHGLKSKTIFTVTPGSEQIRATIERDGQLETFKEFGGIVLANACGPCIGQWDRRDIKKGDKNTIVSSYNRNFTSRNDGNPQTHAFVASPELVTAFAIAGDLRFNPLTDKLKDKDGNEFMLKPPHGDGLPQRGYDAGENTYQAPPADRSTVEVKVSPTSDRLQLLKPFKPWDGKDAKDMPILIKAVGKTTTDHISMAGPWLKYRGHLENISNNYMIGAINAENKKANCVKNVYTGEYKGVPDTARDYRDQGIKWVVIGDENFGEGSSREHAALEPRFLGGFAIITKSFARIHETNLKKQGLLPLNFKNPADYDKINPDDRIDILGLAELAPGKPVTMRVHPKNGKPWDAVLTHTFNDEQIEWFKYGSALNKIKADEKK
With B4, the binding result with Clu1-VN (S. cerevisiae) is on record as “binds”.

B5: Pyc2-VC (protein, UniProt P32327 1-1180)
chain: MSSSKKLAGLRDNFSLLGEKNKILVANRGEIPIRIFRSAHELSMRTIAIYSHEDRLSMHRLKADEAYVIGEEGQYTPVGAYLAMDEIIEIAKKHKVDFIHPGYGFLSENSEFADKVVKAGITWIGPPAEVIDSVGDKVSARHLAARANVPTVPGTPGPIETVQEALDFVNEYGYPVIIKAAFGGGGRGMRVVREGDDVADAFQRATSEARTAFGNGTCFVERFLDKPKHIEVQLLADNHGNVVHLFERDCSVQRRHQKVVEVAPAKTLPREVRDAILTDAVKLAKVCGYRNAGTAEFLVDNQNRHYFIEINPRIQVEHTITEEITGIDIVSAQIQIAAGATLTQLGLLQDKITTRGFSIQCRITTEDPSKNFQPDTGRLEVYRSAGGNGVRLDGGNAYAGATISPHYDSMLVKCSCSGSTYEIVRRKMIRALIEFRIRGVKTNIPFLLTLLTNPVFIEGTYWTTFIDDTPQLFQMVSSQNRAQKLLHYLADLAVNGSSIKGQIGLPKLKSNPSVPHLHDAQGNVINVTKSAPPSGWRQVLLEKGPSEFAKQVRQFNGTLLMDTTWRDAHQSLLATRVRTHDLATIAPTTAHALAGAFALECWGGATFDVAMRFLHEDPWERLRKLRSLVPNIPFQMLLRGANGVAYSSLPDNAIDHFVKQAKDNGVDIFRVFDALNDLEQLKVGVNAVKKAGGVVEATVCYSGDMLQPGKKYNLDYYLEVVEKIVQMGTHILGIKDMAGTMKPAAAKLLIGSLRTRYPDLPIHVHSHDSAGTAVASMTACALAGADVVDVAINSMSGLTSQPSINALLASLEGNIDTGINVEHVRELDAYWAEMRLLYSCFEADLKGPDPEVYQHEIPGGQLTNLLFQAQQLGLGEQWAETKRAYREANYLLGDIVKVTPTSKVVGDLAQFMVSNKLTSDDIRRLANSLDFPDSVMDFFEGLIGQPYGGFPEPLRSDVLRNKRRKLTCRPGLELEPFDLEKIREDLQNRFGDIDECDVASYNMYPRVYEDFQKIRETYGDLSVLPTKNFLAPAEPDEEIEVTIEQGKTLIIKLQAVGDLNKKTGQREVYFELNGELRKIRVADKSQNIQSVAKPKADVHDTHQIGAPMAGVIIEVKVHKGSLVKKGESIAVLSAMKMEMVVSSPADGQVKDVFIKDGESVDASDLLVVLEEETLPPSQKK
As for B5, in the experiment with Clu1-VN (S. cerevisiae), the binding entry was “no binding”.

B6: Scp160-VC (protein, UniProt P06105 1-1222)
chain: MSEEQTAIDSPPSTVEGSVETVTTIDSPSTTASTIAATAEEHPQLEKKPTPLPSLKDLPSLGSNAAFANVKVSWGPNMKPAVSNSPSPSPSAPSLTTGLGAKRMRSKNIQEAFTLDLQSQLSITKPELSRIVQSVKKNHDVSVESTLSKNARTFLVSGVAANVHEAKRELVKKLTKPINAVIEVPSKCKASIIGSGGRTIREISDAYEVKINVSKEVNENSYDEDMDDTTSNVSLFGDFESVNLAKAKILAIVKEETKNATIKLVVEDEKYLPYIDVSEFASDEGDEEVKVQFYKKSGDIVILGPREKAKATKTSIQDYLKKLASNLDEEKVKIPSKFQFLIDAEELKEKYNVIVTFPSTPDDELVSFVGLRDKVGEAITYARSSSKSYVVESLDISKAHSKNLTHAKNLIMYFTKYSVLKGLEESHPNVKISLPSIQSLPTAETVTIHISAKSDEANDIKAVRKELISFVNNIPPSETLVITDLDYELFGGSIKHCLLASESSVAFVQFGDYYPNDNSILLVALTEDEDFKPSIEEIQASLNKANESLNSLRTKQNNMETKTYEFSEEVQDSLFKPSSATWKLIMEDISEQEGHLQIKLHTPEENQLTVRGDEKAAKAANKIFESILNSPSSKSKMTVNIPANSVARLIGNKGSNLQQIREKFACQIDIPNEENNNASKDKTVEVTLTGLEYNLTHAKKYLAAEAKKWADIITKELIVPVKFHGSLIGPHGTYRNRLQEKYNVFINFPRDNEIVTIRGPSRGVNKAHEELKALLDFEMENGHKMVINVPAEHVPRIIGKNGDNINDIRAEYGVEMDFLQKSTDPKAQETGEVELEITGSRQNIKDAAKRVESIVAEASDFVTEVLKIDHKYHKSIVGSGGHILREIISKAGGEEIRNKSVDIPNADSENKDITVQGPQKFVKKVVEEINKIVKDAENSVTKTIDIPAERKGALIGPGGIVRRQLESEFNINLFVPNKDDPSGKITITGAPENVEKAEKKILNEIIRENFDREVDVPASIYEYVSERGAFIQKLRMDLSVNVRFGNTSKKANKLARAPIEIPLEKVCGSTEGENAEKTKFTIEEVGAPTSSEEGDITMRLTYEPIDLSSILSDGEEKEVTKDTSNDSAKKEEALDTAVKLIKERIAKAPSATYAGYVWGADTRRFNMIVGPGGSNIKKIREAADVIINVPRKSDKVNDVVYIRGTKAGVEKAGEMVLKSLRR
Regarding B6, the binding entry with Clu1-VN (S. cerevisiae) is “binds”.
